PMC4336329 (PLoS ONE, 2015)
Screen size: about 310,000 compounds; about 14,000 (4.5%) showed an effect of 50% or more. The effect is printed as a negative number. The list shows a part of the results.

Each molecule was assayed against human ether-à-go-go-related gene (hERG) potassium channel (human, UniProt Q12809) (assay: primary screen, population patch clamp on CHO cells stably expressing hERG).
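Note: peak tail current of the secondary pulse compared with the same well before compound.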

Sequence of human ether-à-go-go-related gene (hERG) potassium channel (Q12809 whole entry, looked up): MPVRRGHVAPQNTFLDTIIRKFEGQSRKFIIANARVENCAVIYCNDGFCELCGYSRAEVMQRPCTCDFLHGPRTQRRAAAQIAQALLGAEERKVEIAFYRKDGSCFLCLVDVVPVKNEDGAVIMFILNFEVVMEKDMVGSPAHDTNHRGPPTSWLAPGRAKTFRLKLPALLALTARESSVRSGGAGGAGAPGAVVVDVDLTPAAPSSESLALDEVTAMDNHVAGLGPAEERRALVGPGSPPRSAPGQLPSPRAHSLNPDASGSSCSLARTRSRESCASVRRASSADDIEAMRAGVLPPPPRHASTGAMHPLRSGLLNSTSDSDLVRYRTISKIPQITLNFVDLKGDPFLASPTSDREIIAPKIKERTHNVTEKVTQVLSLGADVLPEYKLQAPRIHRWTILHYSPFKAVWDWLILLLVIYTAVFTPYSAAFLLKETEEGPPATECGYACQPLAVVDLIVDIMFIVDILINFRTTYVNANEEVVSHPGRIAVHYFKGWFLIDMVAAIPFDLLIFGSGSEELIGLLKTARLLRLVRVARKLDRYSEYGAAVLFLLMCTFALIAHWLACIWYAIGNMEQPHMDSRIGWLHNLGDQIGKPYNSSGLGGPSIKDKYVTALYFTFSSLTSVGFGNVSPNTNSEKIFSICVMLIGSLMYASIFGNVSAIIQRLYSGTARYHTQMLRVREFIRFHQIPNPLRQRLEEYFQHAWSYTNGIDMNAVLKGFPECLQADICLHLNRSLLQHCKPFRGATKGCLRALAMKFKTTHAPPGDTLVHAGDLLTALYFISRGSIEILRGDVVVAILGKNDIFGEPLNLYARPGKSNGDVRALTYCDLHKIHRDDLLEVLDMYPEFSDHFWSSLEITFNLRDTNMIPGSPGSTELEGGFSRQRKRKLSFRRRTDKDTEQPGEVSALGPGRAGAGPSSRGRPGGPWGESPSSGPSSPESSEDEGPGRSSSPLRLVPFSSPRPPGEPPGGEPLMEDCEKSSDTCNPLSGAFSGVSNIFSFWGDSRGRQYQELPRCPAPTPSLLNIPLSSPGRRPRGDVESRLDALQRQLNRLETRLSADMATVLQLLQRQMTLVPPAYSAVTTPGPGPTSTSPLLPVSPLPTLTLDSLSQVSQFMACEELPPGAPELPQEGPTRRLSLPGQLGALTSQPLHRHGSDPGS

Row | SMILES | hERG current change (%, negative = inhibition) at 10uM [%]
1 | COc1ccc(-c2nsc3c(N4CCCCC4C)ncnc23)cc1 (centres unmarked) | 33.3
2 | CCc1ccccc1NC(=O)c1cc(C)no1 | 16.1
3 | Cc1ccccc1NC(=O)Nc1ccc2c(c1)CCC2 | 24.4
4 | O=c1c2ccccc2nc2ccccn12 | 74.7
5 | COc1ccc(Br)c(C(=O)Nc2cccc(S(=O)(=O)N3CCOCC3)c2)c1 | -6.55
6 | COc1ccc(CNC(=O)c2c(O)c3ccccc3n(C)c2=O)cc1 | 0.519
7 | COc1cc(Cl)ccc1OCc1cc(C(=O)N(C)Cc2cn(C)nc2C)no1 | -36.3
8 | N#C/C(=C\c1cc(Br)ccc1F)C(=O)NC1CC1 | -29
9 | Cc1ccc([N+](=O)[O-])cc1NC(=O)CCCOc1ccccc1 | 9.07
10 | Cc1cccc2c1-c1sc(C(=O)Nc3ccccc3N3CCN(C)CC3)cc1CO2 | -13.4
11 | CC(C)n1cnc2cc(NCc3nc4ccccc4n3C)ccc21 | -28.6
12 | CC[C@@H](C)CN1C(=O)N[C@@H](c2ccccc2)C(C(C)=O)=C1C | -0.516
13 | CC(C)n1cc(/C=C2\NC(=O)N(c3cccc(Cl)c3)C2=O)c2ccccc21 | 7.73
14 | Cc1cccc(-n2c(/C=C/c3ccc([N+](=O)[O-])o3)nc3ccccc3c2=O)c1 | -40.3
15 | O=C(c1cnc2n(c1=O)CCS2)N1CCN(c2ccccc2F)CC1 | -5.65
16 | CCC(C)NC(=O)CN(c1ccc2c(c1)OCO2)S(=O)(=O)c1c(C)n[nH]c1C (centres unmarked) | 0.869
17 | NC(=O)C1=C[C@H](c2ccc3c(c2)OCO3)C[C@H](OCc2ccc(CO)cc2)O1 | -18.8
18 | O=C(Nc1ccc(-c2ccc(N3CCCCC3)nn2)cc1)c1ccco1 | 8.14
19 | CC(C)(C)NC(=O)CSc1nnc(-c2ccccn2)n1-c1ccccc1 | -9.24
20 | COc1ccccc1NC(=O)C(=O)c1cn(CC(=O)N2CCCC2)c2ccccc12 | 1.64
21 | Cc1cc(C)n(CCNC(=O)CCc2nnc(CCc3ccccc3)o2)n1 | 12.4
22 | Cc1nc(NC(=O)c2ccccc2)sc1-c1csc(NCCc2ccccc2)n1 | 12
23 | CCCOc1ccc(-c2c(C(=O)N/N=C/C3CCCCC3)nnn2-c2nonc2N)cc1 | 13.9

Row | SMILES | hERG current change (%, negative = inhibition) at 10uM [%]
24 | O=c1c2ccccc2ncn1-c1ccc(Cl)cc1[N+](=O)[O-] | -4.65
25 | CC(C)NC(=O)C(=O)NCCCOC(C)C | 15.8
26 | COc1ccc2c(=O)c(C(=O)NCc3ccccc3)c[nH]c2c1 | 11.1
27 | O=C(Oc1coc(CSc2ncccn2)cc1=O)c1cccc([N+](=O)[O-])c1 | -81.3
28 | COC(CNC(=S)Nc1ccc([N+](=O)[O-])cc1)OC | -6.22
29 | O=C(O)C1CCC(CNS(=O)(=O)c2ccc(Br)cc2)CC1 (centres unmarked) | 16.9
30 | O=C(Cc1ccccc1)Nc1ccc(NC(=O)C2CCCCC2)nc1 | -48.5
31 | O=C(O)c1cc(S(=O)(=O)N2CCOCC2)c[nH]1 | -7.35
32 | Cc1cccc(N2C(=O)C(Cc3ccccc3)NC2=S)c1 (centres unmarked) | 0.534
33 | CCOc1cc(NC(=S)NCCCOC)c(OCC)cc1NC(=O)c1ccco1 | -3.19
34 | COc1ccc(CNC(=O)Cn2cc3c(n2)CCCCC3)cc1 | 3.36
35 | O=C(CSc1nnc(-c2ccncc2)o1)Nc1cccc(F)c1 | -10.6
36 | COc1ccc(Cc2noc(-c3ccc(OC)c(OC)c3)n2)cc1OC | -38.6
37 | O=C(NC(=S)Nc1cccc2cccnc12)c1ccccc1 | 19.6
38 | CCN(CC)S(=O)(=O)c1ccc(-c2nnc(SCC(=O)Nc3nnc(C)s3)n2CC)cc1 | 12.2
39 | COc1ccc(Cl)cc1NC(=S)N1CCN(C(=O)c2ccco2)CC1 | -4.94
40 | O=C(NCC(c1ccco1)N1CCOCC1)c1ccc(F)c(F)c1 (centres unmarked) | 0.222
41 | COc1ccc(C(c2nnnn2Cc2cccs2)N2CCN(c3ccccc3F)CC2)cc1OC.Cl (centres unmarked) | -39.6
42 | COc1ccccc1N1CCN(c2ccnc3cc(Cl)ccc23)CC1 | -43.4
43 | COc1ccc(-c2[nH]ncc2CNC(C)c2cn(C)nc2C)c(F)c1 (centres unmarked) | 1.73
44 | O=C1c2ccccc2C(=O)C1c1ccc(Cl)cc1 | 8.89
45 | CCC(=O)Nc1ccc(N2CCN(CC)CC2)c(Cl)c1 | -3.56
46 | COc1ccc(CC(=O)NNC(=O)c2ccc(NC(C)=O)cc2)cc1 | 19

Row | SMILES | hERG current change (%, negative = inhibition) at 10uM [%]
47 | COc1ccc(C2SCCN2S(=O)(=O)c2ccc(NC(C)=O)cc2)cc1OC (centres unmarked) | -11.7
48 | O=C(c1ccc(Cl)cc1)c1ccc(CN2C(=O)c3ccccc3C2=O)o1 | 1
49 | O=C(Nc1ccc(C(=O)O)cc1)/C(=C\c1ccco1)NC(=O)c1ccccc1 | 21.2
50 | CCOc1ccc(S(=O)(=O)N(CC(=O)N/N=C/c2cccs2)c2ccc(C)cc2)cc1 | -9.47
51 | Cn1c(=O)c2ncn(CC(=O)N/N=C/c3ccco3)c2n(C)c1=O | -1.93
52 | O=C(O)c1cccc2c1C(=O)c1cc(Br)ccc1S2(=O)=O | 20.2
53 | O=C(O)CSc1ccccn1 | 18
54 | COc1ccc(C(=O)NC2CCN(C(=S)Nc3cc(C)cc(C)c3)CC2)cc1 | 11
55 | CC1CCN(CCn2c(=S)[nH]c3ccccc3c2=O)CC1 | -32.6
56 | CCOC(=O)C1CCN(c2ccc(Cl)nn2)CC1 | 4.48
57 | COc1ccc2ccccc2c1CNC(=O)CC1C(=O)NCCN1CC(C)C (centres unmarked) | -28.9
58 | COc1ccc(Nc2cc(C)nc(N)n2)cc1 | 7.02
59 | COc1ccc(C(=O)O)cc1S(=O)(=O)NCCN(C)C | 11.5
60 | CC(NC(=O)c1ccco1)C(=O)N1CCN(c2cccc(C(F)(F)F)c2)CC1 (centres unmarked) | -20.4
61 | Cc1ccc(C)n1-c1nnc(N2CCC(C(=O)NCCCN3CC(C)CC(C)C3)CC2)s1 (centres unmarked) | -17.7
62 | CN(Cc1cn(-c2ccccc2)nc1-c1ccc(Cl)cc1)C(=O)CCC(=O)O | 0.835
63 | CCCCN(CCCC)CCCNC(=O)CN1C(=O)COc2ccc(S(=O)(=O)N3CCC(C)CC3)cc21 | -74.8
64 | O=c1c(O)c(-c2ccc3c(c2)OCO3)oc2ccccc12 | -5.41
65 | C=CCNC(=O)c1cc(-c2ccc(Br)cc2)on1 | 1.88
66 | COc1ccc(NC2CCCN(C(=O)c3cccc(C)n3)C2)cc1OC (centres unmarked) | 18.5
67 | Cc1cc(C)c(NC(=O)COC(=O)C2CCN(c3ccc(C(F)(F)F)cn3)CC2)c(Cl)c1 | -6.28
68 | Cc1ccccc1N1C(=O)c2cccc3c(N(C)CCO)ccc(c23)C1=O | -37.6
69 | O=C(CNS(=O)(=O)c1ccc(F)cc1)N1CCOCC1 | 4.41

Row | SMILES | hERG current change (%, negative = inhibition) at 10uM [%]
70 | CCCN1C(=O)/C(=C/c2ccc(OCc3ccc(C(=O)O)cc3)c(OC)c2)NC1=S | 18
71 | COc1ccc(O)c(-c2cc(-c3cccs3)[nH]n2)c1 | 0.169
72 | CCN(CC)CCCN(Cc1cc2cc3c(cc2[nH]c1=O)OCO3)C(=S)Nc1ccc(OC)cc1 | -46.8
73 | O=C(CSc1nnc(NC(=O)C2CCC2)s1)NC1CC1 | 13.2
74 | Cc1c(C(=O)NCCN2CCOCC2)sc2nc(-c3ccc(F)cc3)cn12 | -23.6
75 | Cc1ccc(NC(=O)CCNC(=O)c2ccccc2Cl)nc1 | 6.84
76 | COc1ccc(C(=O)Nc2ccnn2C2CCN(Cc3ccn[nH]3)CC2)cc1 | 3.21
77 | CCOC(=O)C1CCN(C(=O)CN2C(=O)C(CC)Oc3ccccc32)CC1 (centres unmarked) | -6.71
78 | C(=C\c1ccccn1)/c1ccccn1 | 24.4
79 | CCSc1ccc(-c2nn(-c3ccccc3)cc2/C=C(/C#N)C(=O)NC)cc1 | 12.5
80 | CCN(CC)c1ccc(N2C(=O)c3ccccc3C2=O)cc1 | 1.72
81 | COC(=O)CN1C(=O)[C@H]2[C@@H](/C=C/c3ccccc3)N3C(=O)CN(Cc4ccccc4)C(=O)[C@@]3(C)[C@H]2C1=O | -18.9
82 | CCn1c(N)c(C(=O)NCCCOC)sc1=S | 27
83 | Cc1ccc(Cl)cc1N1CCN(Cc2cc3c(cc2O)CCC3)CC1 | 4.92
84 | O=C1CC(c2ccsc2)c2ccc3ccccc3c2N1 (centres unmarked) | 9.86
85 | COc1ccc(OC)c(NC(=O)CN(C)S(=O)(=O)c2ccc3nc(C)sc3c2)c1 | -16
86 | Cc1ccc(C(=O)NCC(=O)Nc2ccc3c(c2)OCCO3)cc1 | 16.2
87 | COc1ccc(CNC(=O)[C@H](Cc2ccccc2)NC(=O)C2CCNCC2)cc1 | 15.4
88 | CCOC(=O)C1CCN(C(=O)COC(=O)c2ccc3c(c2)C(=O)N(c2ccc(OCC)cc2)C3=O)CC1 | 6.9
89 | O=C(c1ccccc1Oc1ccc([N+](=O)[O-])cc1)N1CCOCC1 | -52
